According to PubChem BioAssay AID493208 (National Center for Advancing Translational Sciences (NCATS), 2011):
About 340 (0.77%) of roughly 44,000 compounds were called active. Inconclusive results (about 5%) are left out. Calls follow the shape of the dose curve; as a rule, active = well fitted inhibition curve with a large enough effect; inconclusive = small, poorly fitted or top-dose-only effect; inactive = flat fitted curve, though single readings scatter. Some of the results follow.

Experiment: Acumen qHTS Assay for Inhibitors of the mTORC1 Signaling Pathway in MEF (Tsc2-/-, p53-/-) Cells: Sytravon;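 also: plate controls were DMSO for no effect and rapamycin for full effect; nearly all actives have a fitted effect of over 50% in size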
Settings: phospho-rpS6 immunofluorescence/PI, 24 h; series mostly up to 38.3 µM; activity change, negative = inhibition: at the top concentration
In short: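 Cell-based qHTS: Tsc2-/- p53-/- MEF, 24 h cpd, 37 °C; fix/perm, anti-phospho-S6 Alexa-488 + PI; Acumen 488 nm scan; pS6/PI ratio, % positive cells; rapamycin 7.5 nM = inhibition ref; PI count = viability.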

Activity change, negative = inhibition, inactive:
CCOC(=O)C1CCN(c2nc3ccccc3nc2Cl)CC1 -22.8%
Cc1cc(C)c(NC(=O)C(=O)NCC(c2cccnc2)N2CCN(c3ccccc3F)CC2)c(C)c1 (stereo unspecified) -5.31%
CCc1cccc(NC(=O)c2cc3c(s2)-c2ccccc2OC3)c1 -10.1%
CC(=O)Nc1cccc(NC(=O)CSc2nccn2C2CCCC2)c1 4.64%
O=C(CN1C(=O)c2cccc3cccc1c23)Nc1cccc(F)c1 -2.89%
C=Cc1ccc(Cn2c(C)c(CNCc3ccc(SC)cc3)c(C(=O)O)c2C)cc1 1.36%
CN(Cc1ccccc1)c1ccc(-c2nc(-c3ccccc3)no2)cc1[N+](=O)[O-] -0.884%
COC(=O)c1ccc2c(=O)n3nc(Nc4cc(OC)ccc4OC)sc3nc2c1 2.69%
Cc1ccccc1NC(=O)CSC1=Nc2ccccc2C2=NC(Cc3ccccc3)C(=O)N12 (stereo unspecified) 0%
Cc1ccc(OCc2nc(C#N)c(NCCc3ccccc3)o2)cc1 -27.3%
CCC(Sc1ncc(S(=O)(=O)c2ccc(Cl)cc2)c(=O)[nH]1)C(=O)Nc1ccc(OC)cc1 (stereo unspecified) -3.56%
COc1ccc(Cl)cc1NC(=O)CSc1nnc2[nH]c(=O)cc(-c3ccccc3)n12 -6.66%
Cc1ccc2[nH]c(=O)c3cc(C(=O)N(CCCOC(C)C)Cc4ccco4)sc3c2c1 1.47%
COc1ccc(-c2nn(-c3ccc(F)cc3)c3c2cnc2ccc(F)cc23)cc1OC -11.5%
CCCc1nn2c(=O)cc(COC(=O)C3CCCCC3)nc2s1 -0.415%
Cc1ccc(NC(=O)CCCn2c(=O)c3cccn3c3ccccc32)cc1Cl 2.86%
COc1ccc(OCC(=O)Nc2ccc(Cl)c(-c3nc4ncccc4o3)c2)cc1 -7.59%
O=C1CN(C(=O)COc2ccccc2)C(c2ccc(F)cc2)c2cc(Br)ccc2N1 (stereo unspecified) 0.339%
COC(=O)c1cc2sc(Cl)cc2n1CC(=O)Nc1cc(OC)cc(OC)c1 -8.22%
COC(=O)c1ccccc1NC(=O)c1oc2ccc3c(c2c1C)C(=O)CC(C)(C)O3 1.47%
CCOc1ccc(CCNC(=O)Cn2ccc3cc(S(=O)(=O)N4CCCCC4)ccc32)cc1 0%
COCCn1c(SCC(=O)c2c(C)[nH]c3ccccc23)nc2cc(C(=O)NC(C)C)ccc2c1=O -5.2%
CCN(CCCNC(=O)c1cc(Nc2ccc(OC)cc2)nc2ccccc12)c1cccc(C)c1 -0.641%
Cc1ccc(Cl)cc1NC(=O)Nc1cn(CC(C)C)c(=O)c2ccccc12 4.95%
Cc1ccccc1CN1C(=O)c2ccccc2Sc2ccc(C(=O)NCc3ccccc3)cc21 1.43%
O=C(Nc1ccccc1F)c1nc(SCc2ccccc2F)ncc1Cl -2.78%
COc1cccc(CNC(=O)c2ccc3c(c2)N(Cc2ccc(F)cc2Cl)C(=O)c2ccccc2S3)c1 9.19%
COc1ccc(-n2nc(C(=O)Nc3ccc(C)cn3)c3c4ccccc4n(C)c3c2=O)cc1Cl 1.01%
Cc1ccc(-c2nc(S(=O)(=O)c3ccc(C)cc3)c(SCC(=O)c3ccccc3)o2)cc1 -1.79%
Cc1cccc(C)c1NC(=O)Cn1c(=O)n(Cc2ccccc2Cl)c(=O)c2cccnc21 -3.25%
CCN(C(=O)CSc1nc2ccccc2n1Cc1ccccc1C#N)c1ccccc1 6.97%
CCOC(=O)c1ccc(NC(=O)CSc2nnc(-c3ccncc3)n2-c2ccccc2)cc1 -5.89%
Cc1ccc2c(C)c(C(=O)NCC(c3ccc(Cl)cc3)N3CCOCC3)oc2c1 (stereo unspecified) -3.28%
Cc1ccc(NC(=O)NC(C)c2c(-n3cccc3)sc(C)c2C)cc1F (stereo unspecified) 2.87%
COc1cc(NC(=O)C2CCN(c3nnc(C)c4c(C)n(-c5ccccc5)nc34)CC2)cc(OC)c1 -11.3%
Cc1ccc(-n2c(=O)[nH]c3cc(C(=O)NCCc4ccccc4)ccc3c2=O)cc1 -2.88%
CCOC(=O)c1ccccc1NC(=O)c1cnn(-c2ccc(OC)cc2)c1C1CCN(C(=O)OC(C)(C)C)CC1 4.04%
Cc1ccc2c(c1)c(=O)c1ccccc1n2CCCC(=O)Nc1ccc(Cl)cc1C 5%
CCOc1ccc(CNC(=O)c2cnc3c(C)cccn3c2=O)cc1 1.11%
Cc1cc(C)cc(NS(=O)(=O)c2ccc3[nH]cc(C(=O)NCc4ccco4)c(=O)c3c2)c1 0.0743%
CC(=O)c1ccc(NC(=O)CN2C(=O)CCc3cc(S(=O)(=O)N4CCC(C)CC4)ccc32)cc1 0%
COc1cccc(NC(=O)CCc2nnc3n(CC(C)C)c(=O)c4ccccc4n23)c1 -1.57%
O=C(/C=C/c1ccccc1)Nc1nc(-c2cccs2)ns1 -4.99%
CCCn1ccc2c(OCC(=O)Nc3ccc(C(F)(F)F)cc3)cccc2c1=O -4.2%
CCC(O)c1nc2ccccc2n1CCOc1cc(C)cc(C)c1 (stereo unspecified) -7.15%
COc1ccc(NC(=O)CSc2n[nH]c(-c3ccccc3)n2)cc1Cl 4.85%
O=C(Nc1ccccc1F)c1oc2ccccc2c1NC(=O)C12CC3CC(CC(C3)C1)C2 -3.51%
CCOc1ccccc1C(=O)Nc1cc2c(cc1N1CCCCC1)n(C)c(=O)n2C 5.19%
CCOc1ccccc1N(CC)C(=O)c1cc2c(=O)n(CC)c3ccccc3c2s1 -6.47%
CCOC(=O)c1noc2nc(C)n(CC(=O)Nc3ccc(Br)cc3C)c(=O)c12 -2.22%
COc1ccc(OC)c(-n2cnc3cc(C(=O)NCCc4ccccc4)ccc32)c1 0.936%
Cc1ccc(CN(C(=O)c2ccc([N+](=O)[O-])cc2)c2ccccn2)cc1 0.0686%
Cc1ccc(OCC(=O)Nc2ccccc2C(=O)OCc2cc(=O)n3c(C)csc3n2)cc1 -0.457%
CC(C)OC(=O)c1c(NC(=O)c2cc3nc(-c4ccccc4)cc(C(F)(F)F)n3n2)sc2c1CCCC2 -3.61%
Cc1ccc(-c2nnc3ccccc3c2C(=O)Nc2cccc(C(F)(F)F)c2)cc1 0.808%
CSc1nnc2c(n1)OC(c1cccc(O)c1Cl)Nc1ccccc1-2 (stereo unspecified) -14.8%
CC1=C(C(=O)Nc2ccc(C)cc2C)C(c2ccc[nH]2)n2ncnc2N1 (stereo unspecified) 0.394%
CC(C(=O)NCc1ccc(Cl)cc1)n1ccc2cc(S(=O)(=O)N3CCCC3)ccc21 (stereo unspecified) -7.98%
N#Cc1cc2c(=O)n3ccccc3nc2n(-c2nnc(SCc3ccccc3F)s2)c1=O -3.55%
COc1cc(-c2nnc(SCC(=O)Nc3cccc(C#N)c3)o2)cc(OC)c1OC 4.54%
CCOC(=O)C1CCCN(S(=O)(=O)c2ccc3c(c2)N(C)C(=O)CC(=O)N3C)C1 (stereo unspecified) 2.96%
